{"source": "the supplement of paper PMC10126150", "note": "Sequences with one replicate were seen in a single cluster, so their values are uncertain.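 Further: ATP exposure 15 min at 22 °C before imaging.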"}
{"test_system": "ATP", "test": "switch fluorescence ratio, 500 uM ATP over buffer (Cy3 cluster intensity, sum of 5 cycles each) (fold (ratio)); higher = stronger signal-on switching upon ATP binding; sequences stand for … in TCGTCGGCAGCGTCAGATGTGTATAAGAGACAGTTTTTTTTTTTTTTTTTTTTTTTTT…TC", "details": "aptamer strand: ATP DNA aptamer (quencher-CACCTGGGGGAGTATTGCGGAGGAAGG + anchor), 100 nM annealed; ATP concentration: 500 uM; one replicate", "how_it_was_run": "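Per cluster, summed Cy3 intensity from the target cycles was divided by that from the buffer cycles to give the fluorescence ratio, then averaged per switch-domain sequence. Clusters outside 100-1000 RFU were excluded. The Cy3-labelled switching-strand clusters, on a modified Illumina MiSeq flow-cell, were annealed to 100 nM quencher-labelled ATP aptamer and imaged in selection buffer, then after 15 min with 500 uM ATP at 22 °C, for five cycles with NaOH stripping and re-annealing between them.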"}
{"sequence": "GTATTGGCTT", "switch fluorescence ratio": 1}
{"sequence": "GTATTGTCGC", "switch fluorescence ratio": 1.09}
{"sequence": "GTATTTGAGG", "switch fluorescence ratio": 0.97}
{"sequence": "GTATTTGTAA", "switch fluorescence ratio": 1.02}
{"sequence": "GTCAAACTGA", "switch fluorescence ratio": 0.966}
{"sequence": "GTCAAATTGC", "switch fluorescence ratio": 1.03}
{"sequence": "GTCAACTTTC", "switch fluorescence ratio": 1.08}
{"sequence": "GTCAAGTATC", "switch fluorescence ratio": 1.02}
{"sequence": "GTCACAGTAT", "switch fluorescence ratio": 1.02}
{"sequence": "GTCACCAGGC", "switch fluorescence ratio": 0.963}
{"sequence": "GTCACGCCCC", "switch fluorescence ratio": 1.28}
{"sequence": "GTCACTCGGG", "switch fluorescence ratio": 1.02}
{"sequence": "GTCAGACCTG", "switch fluorescence ratio": 1.02}
{"sequence": "GTCAGACGCC", "switch fluorescence ratio": 1.1}
{"sequence": "GTCAGCAACC", "switch fluorescence ratio": 1.8}
{"sequence": "GTCAGTAGGT", "switch fluorescence ratio": 0.972}
{"sequence": "GTCATACATT", "switch fluorescence ratio": 0.999}
{"sequence": "GTCATACGAT", "switch fluorescence ratio": 1.01}
{"sequence": "GTCATAGTTG", "switch fluorescence ratio": 0.986}
{"sequence": "GTCATCGAAG", "switch fluorescence ratio": 0.994}
{"sequence": "GTCATGGGTA", "switch fluorescence ratio": 0.957}
{"sequence": "GTCATTGTGA", "switch fluorescence ratio": 1.02}
{"sequence": "GTCATTTCCA", "switch fluorescence ratio": 1}
{"sequence": "GTCCAACAAT", "switch fluorescence ratio": 1}
{"sequence": "GTCCACCTCA", "switch fluorescence ratio": 1.02}
{"sequence": "GTCCACTA", "switch fluorescence ratio": 0.965}
{"sequence": "GTCCACTACA", "switch fluorescence ratio": 1.03}
{"sequence": "GTCCAGACTC", "switch fluorescence ratio": 1.02}
{"sequence": "GTCCAGTCAT", "switch fluorescence ratio": 1.03}
{"sequence": "GTCCCGCTGT", "switch fluorescence ratio": 1.34}
{"sequence": "GTCCCGGCGA", "switch fluorescence ratio": 1.14}
{"sequence": "GTCCCTATTT", "switch fluorescence ratio": 0.97}
{"sequence": "GTCCGACAGC", "switch fluorescence ratio": 1.57}
{"sequence": "GTCCGAGCCT", "switch fluorescence ratio": 1.13}
{"sequence": "GTCCGATTGT", "switch fluorescence ratio": 0.985}
{"sequence": "GTCCTATATA", "switch fluorescence ratio": 0.994}
{"sequence": "GTCCTGCCAG", "switch fluorescence ratio": 1}
{"sequence": "GTCCTTATGC", "switch fluorescence ratio": 1.04}
{"sequence": "GTCGAAGCGG", "switch fluorescence ratio": 1}
{"sequence": "GTCGACCGCG", "switch fluorescence ratio": 0.972}
{"sequence": "GTCGACCTTT", "switch fluorescence ratio": 0.986}
{"sequence": "GTCGACTTGG", "switch fluorescence ratio": 1.05}
{"sequence": "GTCGAGTTTG", "switch fluorescence ratio": 0.971}
{"sequence": "GTCGATATTG", "switch fluorescence ratio": 0.973}
{"sequence": "GTCGATTGTG", "switch fluorescence ratio": 1.05}
{"sequence": "GTCGCACGGG", "switch fluorescence ratio": 0.936}
{"sequence": "GTCGCCAGGT", "switch fluorescence ratio": 1.06}
{"sequence": "GTCGCCCCCG", "switch fluorescence ratio": 1.02}
{"sequence": "GTCGGAAAAC", "switch fluorescence ratio": 1.16}
{"sequence": "GTCGGAAATA", "switch fluorescence ratio": 0.957}
{"sequence": "GTCGGACGAG", "switch fluorescence ratio": 1.01}
{"sequence": "GTCGGAGCAT", "switch fluorescence ratio": 1.04}
{"sequence": "GTCGGTAGCT", "switch fluorescence ratio": 0.965}
{"sequence": "GTCGGTCTGT", "switch fluorescence ratio": 0.949}
{"sequence": "GTCGGTGTCG", "switch fluorescence ratio": 1.03}
{"sequence": "GTCGGTTTAG", "switch fluorescence ratio": 1.02}
{"sequence": "GTCGTATATA", "switch fluorescence ratio": 1}
{"sequence": "GTCGTATATG", "switch fluorescence ratio": 0.971}
{"sequence": "GTCGTATTGA", "switch fluorescence ratio": 1.02}
{"sequence": "GTCGTGTGTG", "switch fluorescence ratio": 0.988}
{"sequence": "GTCGTTTGCA", "switch fluorescence ratio": 1.03}
{"sequence": "GTCGTTTGTC", "switch fluorescence ratio": 0.984}
{"sequence": "GTCTAAAGGT", "switch fluorescence ratio": 0.95}
{"sequence": "GTCTAAGAGG", "switch fluorescence ratio": 1.06}
{"sequence": "GTCTATATTG", "switch fluorescence ratio": 1.01}
{"sequence": "GTCTCAAGCG", "switch fluorescence ratio": 0.952}
{"sequence": "GTCTCGCATG", "switch fluorescence ratio": 1.1}
{"sequence": "GTCTCTCCTG", "switch fluorescence ratio": 1.02}
{"sequence": "GTCTGAAAAT", "switch fluorescence ratio": 0.991}
{"sequence": "GTCTGAGGGT", "switch fluorescence ratio": 0.935}
{"sequence": "GTCTGGACTC", "switch fluorescence ratio": 0.949}
{"sequence": "GTCTGTGGCG", "switch fluorescence ratio": 1.01}
{"sequence": "GTCTTAATCT", "switch fluorescence ratio": 0.98}
{"sequence": "GTCTTAGAAC", "switch fluorescence ratio": 0.992}
{"sequence": "GTCTTATGCG", "switch fluorescence ratio": 1.04}
{"sequence": "GTCTTCTTG", "switch fluorescence ratio": 1.04}
{"sequence": "GTCTTGCCGT", "switch fluorescence ratio": 1.03}
{"sequence": "GTCTTGTACC", "switch fluorescence ratio": 0.986}
{"sequence": "GTGAAAGAAC", "switch fluorescence ratio": 0.982}
{"sequence": "GTGAAAGAGG", "switch fluorescence ratio": 0.981}
{"sequence": "GTGAAATGGT", "switch fluorescence ratio": 1.02}
{"sequence": "GTGAAATGTT", "switch fluorescence ratio": 0.972}
{"sequence": "GTGAAATTCA", "switch fluorescence ratio": 1.01}
{"sequence": "GTGAAGATAT", "switch fluorescence ratio": 1.03}
{"sequence": "GTGAATCTAT", "switch fluorescence ratio": 1}
{"sequence": "GTGACCATAC", "switch fluorescence ratio": 1.74}
{"sequence": "GTGACCCTGT", "switch fluorescence ratio": 0.97}
{"sequence": "GTGACGAGTC", "switch fluorescence ratio": 1}
{"sequence": "GTGACGCTAT", "switch fluorescence ratio": 2.36}
{"sequence": "GTGAGAGTGC", "switch fluorescence ratio": 1}
{"sequence": "GTGAGATTTG", "switch fluorescence ratio": 0.999}
{"sequence": "GTGAGCTTAA", "switch fluorescence ratio": 1.01}
{"sequence": "GTGAGGAAGG", "switch fluorescence ratio": 0.972}
{"sequence": "GTGAGGAGAT", "switch fluorescence ratio": 0.99}
{"sequence": "GTGAGGCGTG", "switch fluorescence ratio": 0.985}
{"sequence": "GTGAGGGGAG", "switch fluorescence ratio": 0.983}
{"sequence": "GTGAGGGGT", "switch fluorescence ratio": 0.999}
{"sequence": "GTGAGGTTAG", "switch fluorescence ratio": 0.962}
{"sequence": "GTGAGTGATG", "switch fluorescence ratio": 1.01}
{"sequence": "GTGAGTTGGT", "switch fluorescence ratio": 1.02}
{"sequence": "GTGATAACTC", "switch fluorescence ratio": 1.15}
{"sequence": "GTGATCGGAT", "switch fluorescence ratio": 0.979}
{"sequence": "GTGATTAGC", "switch fluorescence ratio": 1.05}
{"sequence": "GTGATTAGCT", "switch fluorescence ratio": 0.995}
{"sequence": "GTGATTGGAT", "switch fluorescence ratio": 0.992}
{"sequence": "GTGCACAAGG", "switch fluorescence ratio": 0.983}
{"sequence": "GTGCATAAGA", "switch fluorescence ratio": 1.01}
{"sequence": "GTGCATGCGC", "switch fluorescence ratio": 1}
{"sequence": "GTGCATGGTT", "switch fluorescence ratio": 1.01}
{"sequence": "GTGCCAAAGA", "switch fluorescence ratio": 0.994}
{"sequence": "GTGCCAACCA", "switch fluorescence ratio": 1.01}
{"sequence": "GTGCCGCCGA", "switch fluorescence ratio": 1.03}
{"sequence": "GTGCCTAGTA", "switch fluorescence ratio": 1.01}
{"sequence": "GTGCGACGGT", "switch fluorescence ratio": 1.01}
{"sequence": "GTGCGTAGTG", "switch fluorescence ratio": 1.01}
{"sequence": "GTGCTAGAAC", "switch fluorescence ratio": 0.988}
{"sequence": "GTGCTAGGCA", "switch fluorescence ratio": 0.984}
{"sequence": "GTGCTCCTCT", "switch fluorescence ratio": 0.983}
{"sequence": "GTGCTTGTCT", "switch fluorescence ratio": 0.97}
{"sequence": "GTGCTTTGGC", "switch fluorescence ratio": 0.992}
{"sequence": "GTGGAAGCTA", "switch fluorescence ratio": 0.992}
{"sequence": "GTGGACAAAT", "switch fluorescence ratio": 1.04}
{"sequence": "GTGGACTAGG", "switch fluorescence ratio": 1.03}
{"sequence": "GTGGAGACAA", "switch fluorescence ratio": 0.967}
{"sequence": "GTGGAGAGGC", "switch fluorescence ratio": 1.02}
{"sequence": "GTGGATCACG", "switch fluorescence ratio": 1}
{"sequence": "GTGGATGGCC", "switch fluorescence ratio": 1.04}
{"sequence": "GTGGCAAAGG", "switch fluorescence ratio": 1}
{"sequence": "GTGGCCTGTT", "switch fluorescence ratio": 0.975}
{"sequence": "GTGGCGTTAG", "switch fluorescence ratio": 0.986}
{"sequence": "GTGGCTCATC", "switch fluorescence ratio": 0.957}
{"sequence": "GTGGCTCTGA", "switch fluorescence ratio": 0.911}
{"sequence": "GTGGCTTTG", "switch fluorescence ratio": 0.987}
{"sequence": "GTGGGAACTA", "switch fluorescence ratio": 0.986}
{"sequence": "GTGGGAACTT", "switch fluorescence ratio": 0.985}
{"sequence": "GTGGGAATTG", "switch fluorescence ratio": 0.965}
{"sequence": "GTGGGATTA", "switch fluorescence ratio": 1.03}
{"sequence": "GTGGGCTATC", "switch fluorescence ratio": 1}
{"sequence": "GTGGGGAGTA", "switch fluorescence ratio": 1.01}
{"sequence": "GTGGGGCGGC", "switch fluorescence ratio": 0.995}
{"sequence": "GTGGGTATAA", "switch fluorescence ratio": 1.05}
{"sequence": "GTGGGTGAGA", "switch fluorescence ratio": 1.02}
{"sequence": "GTGGGTGTTA", "switch fluorescence ratio": 0.993}
{"sequence": "GTGGTAATAA", "switch fluorescence ratio": 0.98}
{"sequence": "GTGGTGCGGG", "switch fluorescence ratio": 0.971}
{"sequence": "GTGGTTATCT", "switch fluorescence ratio": 0.999}
{"sequence": "GTGGTTATGT", "switch fluorescence ratio": 0.988}
{"sequence": "GTGTAACAAG", "switch fluorescence ratio": 1.03}
{"sequence": "GTGTAAGCCA", "switch fluorescence ratio": 0.966}
{"sequence": "GTGTAAGTTC", "switch fluorescence ratio": 1.01}
{"sequence": "GTGTACCGAT", "switch fluorescence ratio": 0.974}
{"sequence": "GTGTACCTTC", "switch fluorescence ratio": 1.34}
{"sequence": "GTGTAGGATC", "switch fluorescence ratio": 1.01}
